Reference: ChEMBL document CHEMBL4888484, “Replenishing the malaria drug discovery pipeline: Screening and hit evaluation of the MMV Hit Generation Library 1 (HGL1) against asexual blood stage Plasmodium falciparum ,using a nano luciferase reporter read-out” (2022)
Out of some 150,000 compounds screened, about 540 (0.36%) showed an effect of 50% or more. This is one part of the list.

What follows are compounds tested on Plasmodium falciparum (assay: Primary screen in NF54 nanoGlo assay, in single point, at 2uM, 72h; a lower Z score goes with more inhibition). Conditions: timepoint 72 hour.
Assay type: functional, Erythrocyte

Row | Structure (SMILES) | % Inhibition | Z score
1 | CCc1nc(CNC(=O)c2ccc(C)nc2OC)n[nH]1 | -13% | 1.29
2 | COc1ccc(CC(=O)N[C@@H]2[C@H]3CCO[C@H]3[C@H]2Cc2ccccc2)cc1 | 10% | -1.26
3 | CCN1CC(=O)N[C@@H]1c1ccnn1CC | -12% | 1.25
4 | CCN(CC)S(=O)(=O)N1CCC2(CC1)OCCc1ccsc12 | -6% | 0.87
5 | COCCN1CCC2(CCC1=O)CCN(C(=O)CC1CCCC1)CC2 | -11% | 1.23
6 | CN(C1CCCCC1)S(=O)(=O)N1CCC[C@H](C(=O)NCc2cccc(Br)c2)C1 | -13% | 1.23
7 | Cc1cc(N[C@@H](C)CS(C)(=O)=O)cc(C)c1Br | 12% | -1.45
8 | CCOCCC(=O)N[C@@H](C)c1nnc(C(C)C)o1 | 10% | -1.27
9 | Cc1cc2[nH]c(=O)[nH]c2c(NC(=O)CC[C@H](C)N2CCN(C)CC2)c1C | -10% | 1.61
10 | Cn1ccc(-c2n[nH]c(=O)n2CC2CCCCC2)n1 | -9% | 1.33
11 | O=C(CCc1cc2n(n1)CCNC2)Nc1cccc(-c2cnc[nH]2)c1 | -2% | 0.22
12 | Cc1nnc(CN2C[C@H](C)Oc3ccc(Br)cc32)o1 | -3% | 0.54
13 | Cn1cc(CNC(=O)C[C@@H]2C[C@H]3O[C@H](CNC(=O)NCc4ccccc4)[C@@H](O)[C@H]3O2)cn1 | -3% | 0.41
14 | Cc1ccccc1N1CCN(C(=O)CC[C@]2(Cc3ccc(-c4ccccc4)cc3)CCC(=O)N2)CC1 | -6% | 1.14
15 | CCc1nc(C)c(C(=O)Nc2cc(C(F)(F)F)c[nH]c2=O)s1 | -5% | 0.75
16 | Cc1ccc(-c2nc(C(=O)N3CC4CC5CC4C3C5O)cs2)n1C (stereo unspecified) | -8% | 0.95
17 | CCC(c1cccs1)N1C(=O)[C@H]2CN(S(=O)(=O)c3cc(C)ccc3C)C[C@H]2C1=O (stereo partly specified) | 0% | 0.01
18 | OCCc1cc(CC2(NCc3ccco3)COC2)no1 | -3% | 0.39
19 | CC1CC(NC(=O)c2nc(=O)[nH][nH]2)CN1c1ccccc1 (stereo unspecified) | -9% | 0.93
20 | CN(C(=O)C[C@]1(c2ccccc2)CC(=O)N(CCc2ccccn2)C1=O)C(C1CC1)C1CC1 | -5% | 0.72
21 | Cn1cc(C2C(C(=O)NC3CCCc4occc43)CC(=O)N2C(C)(C)C)cn1 (stereo unspecified) | 3% | -0.24

Row | Structure (SMILES) | % Inhibition | Z score
22 | O=C(CNC(=O)c1ccsc1)NCC1(C2CC2)CCC1 | -9% | 0.77
23 | CC(C)c1cc(C(=O)N2CCC(N3CCOC3=O)CC2)nc2ncnn12 | -12% | 2.36
24 | COC[C@@H](C)n1nnnc1N1C2CCC1CC(CC(F)(F)F)C2 (stereo partly specified) | -10% | 1.27
25 | Cc1cc(C)n(-c2ccc([C@H](C)NC(=O)c3c[nH]nn3)cc2)n1 | -8% | 1.31
26 | CC1(F)CC(NC(=O)c2cscn2)C1 (stereo unspecified) | -2% | 0.23
27 | Cc1cc(-c2nc(CN3CCOCC3)no2)c2cccc(C)c2n1 | -5% | 0.62
28 | COc1cccc2c1NC(=O)C[C@H]2C(=O)N1CCC(CN2CCCC2=O)CC1 | 11% | -1.45
29 | CC1(C)CCC(O)(CN[C@H](c2ccccc2)c2nnc[nH]2)CC1 | -19% | 2.08
30 | CNc1ccc(-c2cc(C(F)(F)F)nn2C)cn1 | -5% | 0.93
31 | O=C(NC1(C(=O)O)CCCC1)c1cc(-c2ccccc2)ccc1Cl | 1% | -0.21
32 | Cc1cccc(-n2nc(C3CCOCC3)nc2-c2ccc3c(c2)OCO3)n1 | -11% | 1.87
33 | O=c1c(CN2CCN(c3ccc(F)cc3)CC2)cc2ccc(F)cc2n1C[C@H]1CCCO1 | -4% | 0.46
34 | COc1ccc(OC)c(S(=O)(=O)N2CCC[C@@](F)(C(=O)N3CCCC3)C2)c1 | -7% | 0.58
35 | C[C@@]1(C(=O)NC2CCCCCC2)Cn2nc(C3CC3)cc2C(=O)N1Cc1ccccc1F | -3% | 0.55
36 | CCOc1ccc(C)cc1S(=O)(=O)N(CCO)CCO | -7% | 1.07
37 | Cc1cnn(CCn2cnc(C#N)n2)c1 | 7% | -1.05
38 | COc1cc2c(cc1CN1CCC(c3ncncc3C)CC1)OCCCO2 | 2% | -0.35
39 | Cc1nc[nH]c1-c1cc(-c2cc(CN3CCOCC3)cs2)nc(N)c1C#N | -2% | 0.33
40 | COCCNC(=O)CN(C)C1CCCCC1 | -11% | 1.27
41 | Cc1ccc(C)c(-n2nc(C)c(CN3CCCC[C@H](S(C)(=O)=O)C3)c2Cl)c1 | -10% | 1.2
42 | CCCOc1ccccc1-c1cn(Cc2ccon2)nn1 | -12% | 1.65

Row | Structure (SMILES) | % Inhibition | Z score
43 | COc1ccc(CCNC(=O)C2C3C(=O)N(c4ccccc4)C[C@]34C=C[C@H]2O4)cc1 (stereo partly specified) | -13% | 2
44 | Cc1noc(NC(=O)N2CCC=C(F)C2)n1 | 0% | 0.02
45 | O=C(CC[C@@H]1NC(=O)N(Cc2ccc3c(c2)OCO3)C1=O)N1CCOCC1 | -15% | 2.13
46 | CCCNC(=O)Cn1ccc(=O)[nH]c1=O | -21% | 1.94
47 | NS(=O)(=O)c1cnc(NCCNc2cccc3ccccc23)s1 | 0% | 0.01
48 | CC(C)(C)c1ccn(C2(C(=O)O)CCN(C(=O)c3cncc(Cl)c3)CC2)n1 | 13% | -1.74
49 | CN(C)c1ccnc(CNC(=O)N[C@H]2CC23CCOCC3)c1 | -2% | 0.43
50 | CN(C(=O)c1cccc(-c2ccoc2)c1)C1CCCC1S(C)(=O)=O (stereo unspecified) | 2% | -0.24
51 | CCN(C)C(=O)c1ccc(N2C[C@@H]3[C@H]4CC[C@H](CC4)[C@@H]3C2)nc1 | 10% | -1.22
52 | COc1ccccc1CN1CC[C@H](c2nnc(Cc3ccccc3)o2)C1 | -11% | 1.42
53 | Cc1cc(O)cc(=O)n1CCc1c[nH]c2ccc(F)cc12 | -6% | 0.73
54 | CCCC[C@H](NCc1nnc2n1CCCC2)C(=O)Nc1cc(C)on1 | -8% | 1.4
55 | Cc1cnn(CC(=O)NC[C@H](O)COc2ccc(F)cc2)c1 | 27% | -3.03
56 | CS(=O)(=O)NC1CCCC1CNC(=O)[C@H](O)c1ccccc1 (stereo partly specified) | -17% | 2.26
57 | O=C1Cc2cc(S(=O)(=O)N3CCC(C(=O)Nc4ccc5c(c4)OCO5)CC3)ccc2N1 | -18% | 2.76
58 | c1ccc2c(c1)OCC[C@@H]2Nc1ncnc2ccccc12 | 6% | -1.12
59 | O=C(Cc1nnc(-c2ccsc2)o1)Nc1ccc(OC(F)(F)F)cc1 | 10% | -0.99
60 | CCc1cc(-c2cn[nH]c2)nc(N(C)C)n1 | -14% | 1.78
61 | Cc1cnc(CNC(=O)[C@@H]2CCO[C@H]2c2ccc(Cl)c(F)c2)o1 | -8% | 0.95
62 | CCn1nc(C(=O)NC2(CC(=O)O)CCC2)c(=O)c2ccccc21 | -12% | 1.92
63 | CC1CN(C(=O)c2ccc(N(C)C)nn2)CC(C)N1 (stereo unspecified) | 6% | -0.81

Row | Structure (SMILES) | % Inhibition | Z score
64 | CC(C)O[C@H]1CN(c2nccc(C3CCCC3)n2)C[C@@H]1O | -10% | 1.46
65 | CCOC[C@@H](O)CN(Cc1c(-c2ccccc2)noc1N(CC)CC)CC1CC1 | 0% | -0.06
66 | C[C@H]1CN(C(=O)CCCOc2ccccc2)C[C@]1(O)C1CC1 | 1% | -0.11
67 | CN1C[C@@H]2CC[C@H]1CN(C(=O)c1cccc(-c3ccc4c(c3)OCO4)c1)C2 | -4% | 0.63
68 | C[C@@H]1C[C@H](O)CN(C(=O)NC[C@@H]2C[C@H]2c2ccccc2)C1 | -3% | 0.38
69 | CC(C)CN(C)C(=O)[C@H]1CCCN(C2CCN(C3Cc4ccccc4C3)CC2)C1 | -10% | 0.97
70 | COc1ccc(N2C[C@@]34C=C[C@@H](O3)C(C(=O)NCc3ccccc3)[C@H]4C2=O)cc1 (stereo partly specified) | 3% | -0.51
71 | O=C1COC(=O)N1CC1CN(S(=O)(=O)c2ccc3c(c2)CCO3)C1 | 4% | -0.59
72 | O=C(Nc1cccc2c1OCCC2)N1CCC[C@H](OC2CCC2)C1 | 2% | -0.29
73 | O=S(=O)(c1cccc2nsnc12)N1CCC2(CC1)CC2(F)F | 20% | -2.56
74 | Cc1ccc2nc(NC(=O)N(C)C[C@H](C)c3nccs3)sc2n1 | -20% | 2.23
75 | CC(=O)N1CCN(CC(=O)c2cc(C)n(-c3cc(C)on3)c2C)CC1 | -4% | 0.5
76 | Cc1ccc2[nH]c(CCC(=O)N3CCC(C(=O)N4CCCC4)CC3)nc2c1C | -1% | 0.17
77 | COCCCn1ccc(NCc2cccnc2)n1 | -6% | 0.83
78 | CC(C)N(C)c1ccccc1CNC(=O)NCc1cccnc1 | 3% | -0.45
79 | CN(C)c1ccc(CN2CCC(Oc3ccc(Cl)cc3)(C(=O)O)CC2)cn1 | -5% | 0.5
80 | COc1cc2c(cc1OC)CN(C1CCN(C(=O)[C@@H](C)Cn3cccn3)CC1)CC2 | -9% | 1.45
81 | CN(C)c1ncc(CN2C[C@H]3CCC[C@@H](C2)N(C)C3)s1 | -2% | 0.37
82 | Cc1ccnn1CCc1ncnn1CC(C)(C)O | -1% | 0.16
83 | O=C(N[C@@H]1CN(C(=O)c2ccco2)C[C@H]1CO)c1ccccc1 | -12% | 1.98
